Sequences and labels used below:
B1: chr7:17792983:17793084:-|3pUTR|ENSG00000071189|msi1|total|mutant (ssRNA)
RNA: GGGAGUUCUACAGUCCGACGAUCGACAUGCCUCCGGUAACUGCAGAAACCGCAAAUUAAAUGAUUAAUGAGCUUAUCCGUCACCGUAAACAUACAGAUUCCUAAUUCUAUGACAGUGUACAUAUAUGAAAAUAAAUGAUGAAACAACAGAGGAUUGAGCAUCA
B2: chr19:45712844:45712945:-|CDS|ENSG00000177051|unk|FALSE|bound_elsewhere (ssRNA)
RNA: GGGAGUUCUACAGUCCGACGAUCGGAACAGCGGGCAGCCCUGGCCCUGCAGAGCUACCCACGACCGACCACCCCAGCGCCUGUAGUCUUUGUGUCCGCCGAGCAAGGUGGACCGGCCAAGGGGGUGGGAUCUGAACGGCGGUCCAACAGAGGAUUGAGCAUCA
B3: ENSG00000089050:stop:overlap|stop_codon|ENSG00000089050|stop_codon|NA|stop_codon (ssRNA)
RNA: GGGAGUUCUACAGUCCGACGAUCAGAACACAGAGUUUCAUGAACUGAUUACUGUUGUAAAGUCUUUGCUGAAAGUACCAGCAUAGACUGUAUGAUUUCUGCUAUUUUGCAUCCCAAUAUAGGAGUAGAAUAAUAUCUACUAUCCAACAGAGGAUUGAGCAUCA
B4: chr4:152882748:152882856:+|CDS|ENSG00000164144|unk|total|mutant (ssRNA)
RNA: GGGAGUUCUACAGUCCGACGAUCCAGAAACUGCUGGCUAAAAAUGGAGAGACUCUUCUUGGGGCCAUUAAUUUUUUCAUUGCCCGUGUGAACACUUUGGUGAAUAAAACCAUUGAAGAUACAUUAAUGACUGUGAAACAGUAUCAACAGAGGAUUGAGCAUCA
B5: chr17:79086671:79086772:+|3pUTR|ENSG00000167280|msi1|FALSE|unique (ssRNA)
RNA: GGGAGUUCUACAGUCCGACGAUCAUAGGCUGCAAGAUGCUGAUGCCGAGAAUGAUGAUUUUCUUUCCUGCAGAUGAAACUAUUAGAAAGGGUCUUAGAUUGUGGCAGGUAGGCUUUGGAGCAGGCGCCGAGACAUUUCUGAGCCAACAGAGGAUUGAGCAUCA
B6: chr2:37227669:37227839:-|CDS|ENSG00000115816|unk|total|mutant (ssRNA)
RNA: GGGAGUUCUACAGUCCGACGAUCGUUUACUUUUGCUUUUUUCGGACUUGUGUCAAAAAAAAAGAUGUUGAAUCAAAAAUGCUCCGCGCCCUUUUAACAGGUGUGAACCGGGCAUACCCUUAUUCCCAGACUGGUGAUGACAAACAACAGAGGAUUGAGCAUCA
B7: chr8:58583617:58583718:-|3pUTR|ENSG00000035681|unk|total|mutant (ssRNA)
RNA: GGGAGUUCUACAGUCCGACGAUCGUUUUGUCUUCCUAAUCUAUCACAAUUGCCACCCAUCGGGUUUUGGGUGUGUGUUUUCACCGCGUGGUUACUUUCUAUAAUGCUGUACCCAGAUUCUAAGAACCUGGAGAAGGAUCCGCACAACAGAGGAUUGAGCAUCA
B8: ENSG00000056277:stop:overlap|stop_codon|ENSG00000056277|stop_codon|NA|stop_codon (ssRNA)
RNA: GGGAGUUCUACAGUCCGACGAUCUAGAGAAUGUUUCCAAAAGUACCUCAACUUCUGAACCCACUACUGGCUGCUCAUUGAAAUAGAUUCCUGCUCCAUGGAGUUCAUGCAACCUGGUGCAAGACAAGUUGGAAGUUCCUAAGUCAACAGAGGAUUGAGCAUCA
B9: chr11:65967286:65967395:+|CDS|ENSG00000175467|unk|FALSE|unique (ssRNA)
RNA: GGGAGUUCUACAGUCCGACGAUCGACCUUUAAAAAGACCAAGCGGAGGGUGAAGAAAAUCCGCAAGAAGGAGAAGGAGGUAGUAGUGCGGGCAGAUGACUUGCUGCCUCUCGGGGACCAGACUCAGGAUGGGGACUUUGGUUCCAACAGAGGAUUGAGCAUCA
B10: chr15:73560698:73560803:-|3pUTR|ENSG00000156642|msi1_unk|FALSE|overlapping (ssRNA)
RNA: GGGAGUUCUACAGUCCGACGAUCUUUUGGGCUUGAUGUGCUGUGAAUGUUGCUUUUUUUUUUCCUUUGUUAAAAUAUUUAAAUAGAAGUGAAAAGGUCCUCUGAGGAUCAGAUCAUGCAUGCGCCAUUUUUUACUUAAUGCAGCAACAGAGGAUUGAGCAUCA
B11: chr5:141515350:141515460:-|3pUTR|ENSG00000131504|msi1_unk|FALSE|overlapping (ssRNA)
RNA: GGGAGUUCUACAGUCCGACGAUCCUCAGCUUUCCAUCCCCAGCUAGGAAGAAAGAAUGGCACUCUUGGGCUUGGCCCAGAAUUAGAGUUAUUAGAGCAAGAGAGAGCUUAGGAAGCAUGAGGGCAACUAUAGUGAGGCCUUAUCAACAGAGGAUUGAGCAUCA
B12: ENSG00000176463:stop:overlap|stop_codon|ENSG00000176463|stop_codon|NA|stop_codon (ssRNA)
RNA: GGGAGUUCUACAGUCCGACGAUCCAAAGUUUAUCUAUAACCUGGAAGACCAUGAGUGGUGUGAAAACAUGGAGUCCGUUUUAUAGUGACUAAAGGAGGGCUGAACUCUGUAUUAGUAAUCCAAGGGUCAUUUUUUUCUUAAAACAACAGAGGAUUGAGCAUCA
B13: chr14:60713409:60714203:-|CDS|ENSG00000100625|control|control|control (ssRNA)
RNA: GGGAGUUCUACAGUCCGACGAUCUUCUGAGAGCAAAGCAACAAGUAGCUUAAUGAUGCUGGACUCUAAAUCCAAGUAUGUCUUAGAUGGCAUGGUUGAUACUGUCUGUGAAGACCUGGAAACAGACAAAAAAGAGCUUGCCAACAACAGAGGAUUGAGCAUCA
B14: chr10:95611293:95611394:-|CDS|ENSG00000059573|msi1|FALSE|bound_elsewhere (ssRNA)
RNA: GGGAGUUCUACAGUCCGACGAUCCCCCUCCGAAGUGAAGUCACUCCGAACUGAGUAUGGGGACCUGGAAUUAUGCAUUGAAGUAGUGGACAACGUUCAGGAUGCCAUUGACCACAUCCACAAGUAUGGCAGCUCCCACACGGACAACAGAGGAUUGAGCAUCA
B15: chr1:9729132:9729211:-|3pUTR|ENSG00000171603|msi1_unk|total|mutant (ssRNA)
RNA: GGGAGUUCUACAGUCCGACGAUCCCGUUCUGAGGACACUGGUGGCUGUGCUAUGUGUGGCCAUCCUCCAUGUCCCGUCCCUGCCGCUGCUCUGUUCCGACAGCGGACAGACGCUCACGCCCAGGGGAUGUCCUCACGCUGUCGCAACAGAGGAUUGAGCAUCA
B16: ENSG00000136451:be:win_751|CDS|ENSG00000136451|bound_else_gene|NA|bound_elsewhere_windowed (ssRNA)
RNA: GGGAGUUCUACAGUCCGACGAUCGUAAAACAUGUCCAUUCAACAGAAAGACCCUUCAAAUGCCAAACGUGCACUGCUGCCUUUGCCACCAAAGACAGACUGCGGACACACAUGGUGCGCCAUGAAGGCAAGGUAUCAUGUAACCAACAGAGGAUUGAGCAUCA
B17: chr10:106575406:106575507:-|3pUTR|ENSG00000108018|unk|total|mutant (ssRNA)
RNA: GGGAGUUCUACAGUCCGACGAUCUUAUGGACUGGGCAAAGCCCACUAUAAACUACCGGAGAAAGAAGUUCUGAUAAACCUCUCCGUAUGCUCAGCCUCCUUCUUUGCUAUGUCCCUAAGCCAACAGGGUAUAACACAGGCCCUCAACAGAGGAUUGAGCAUCA
B18: chr5:72207927:72208036:+|3pUTR|ENSG00000131711|msi1_unk|FALSE|overlapping (ssRNA)
RNA: GGGAGUUCUACAGUCCGACGAUCUUUUUUUUUUUUUUUUUUUGCUAUGGGAUUUAAUGGGAAAAAUAUGUAAAAACUGUCACUAGUCAGCUGGCUCUUUUUCCUAUGAAAUCUAUCAGUACCUUUCUCCAUCCGUUGUUCUCACAACAGAGGAUUGAGCAUCA
B19: chr15:85746268:85746369:+|3pUTR|ENSG00000170776|msi1|total|mutant (ssRNA)
RNA: GGGAGUUCUACAGUCCGACGAUCUGUUUUAUUUAUUGUAUUUGUGUGUUUGUGUUUGUUUUUUUUUAAGGGUGAGCCAGGUCCCGCCCAACAGUCUAAACUAUCCAGUCAAUACCGAGUGAAGUGGCAGCCAGCACUGUUCACCAACAGAGGAUUGAGCAUCA
B20: chr17:28327902:28328001:+|3pUTR|ENSG00000109084|msi1_unk|FALSE|overlapping (ssRNA)
RNA: GGGAGUUCUACAGUCCGACGAUCUCCCUGUAUCUGAAGUCUAGCAUCUCAAGGCUGAUCUGGAAGUGUGCUAGUAUGCUCCCUAGUGGAUAACUUAAUCUUUUAAUACAGUUCCGUCAUUCCCAUCUUGUUUUCAGAAGAGAACAACAGAGGAUUGAGCAUCA
B21: chr20:57651677:57651767:-|3pUTR|ENSG00000124225|msi1_unk|FALSE|overlapping (ssRNA)
RNA: GGGAGUUCUACAGUCCGACGAUCGUUGAGCUGUGUCUUGAAGGCAAAAGAAAAAAAAUUUCUACAGUAGUCUUUCUUGUUUCUAGUUGAGCUGCGUGCGUGAAUGCUUAUUUUCUUUUGUUUAUGAUAAUUUCACUUAACUUUCAACAGAGGAUUGAGCAUCA
B22: chr18:47840682:47840783:-|3pUTR|ENSG00000175387|unk|FALSE|unique (ssRNA)
RNA: GGGAGUUCUACAGUCCGACGAUCAUACCGUUUUUCCAAAGGUAUUUUACAAUAUUUCAACAGCAGACCUUCUGCUCUUCGAGUAGUUUGAUUUGGUUUAGUAACCAGAUUGCAUUAUGAAAUGGGCCUUUUGUAAAUGUAAUUCAACAGAGGAUUGAGCAUCA

Some of the results follow.

The experiment concerns the target MSI1 full-length (mouse, UniProt Q61474 1-362). The experiment can be described thus: nsRBNS (natural sequence RNA bind-n-seq); RBNS binding buffer (assumed for nsRBNS): 25 mM Tris pH 7.5, 150 mM KCl, 3 mM MgCl2, 0.01% Triton X-100, 500 ug/ml BSA, 20 U/ml SUPERase-In, 4 C; UNK is unkempt and MSI1 is Musashi-1; names of the RNAs are library labels; protein concentration not given here; high values mean tight binding.
Chain of UniProt Q61474 (Q61474 whole entry): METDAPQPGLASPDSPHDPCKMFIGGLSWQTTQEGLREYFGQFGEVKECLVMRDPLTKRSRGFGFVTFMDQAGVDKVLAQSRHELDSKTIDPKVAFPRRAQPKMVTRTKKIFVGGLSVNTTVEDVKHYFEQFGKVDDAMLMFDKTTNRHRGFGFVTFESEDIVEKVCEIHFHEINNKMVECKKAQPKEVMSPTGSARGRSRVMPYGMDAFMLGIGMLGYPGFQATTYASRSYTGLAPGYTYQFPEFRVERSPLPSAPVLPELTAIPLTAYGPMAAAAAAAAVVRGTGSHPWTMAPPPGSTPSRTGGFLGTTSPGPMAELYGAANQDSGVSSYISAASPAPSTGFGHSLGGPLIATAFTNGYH
In turn, B1 had a binding signal of 1.2 enrichment R.
Molecule B2 returned a binding signal of 0.68 enrichment R.
In the case of B3, the binding signal was found to be 0.987 enrichment R.
As for B4, the figure is 0.289 enrichment R; as for B5, 0.69 enrichment R.
In turn, B6 returned a binding signal of 0.276 enrichment R.
On to B7, for which the binding signal is 0.38 enrichment R.
Turning to B8, the binding signal came to 0.336 enrichment R.
B9 had a binding signal of 0.751 enrichment R.
Molecule B10 displayed a binding signal of 1.17 enrichment R.
B11 came in with a binding signal of 28.2 enrichment R.
For the molecule B12, the binding signal was found to be 0.814 enrichment R.
For B13, the binding signal was determined as 0.909 enrichment R.
B14 yielded a binding signal of 0.344 enrichment R.
As for B15, the figure is 0.361 enrichment R.
As for B16, the figure is 0.295 enrichment R; as for B17, 0.477 enrichment R.
B18 displayed a binding signal of 2.63 enrichment R.
B19 showed a binding signal of 7.01 enrichment R.
In the case of B20 it was 3.52 enrichment R; in that of B21, 0.985 enrichment R.
Regarding B22, the binding signal is 1.07 enrichment R.
